Source: article PMC4336329 (PLoS ONE, 2015)
The whole screen tested about 310,000 compounds, of which about 14,000 (4.5%) showed an effect of 50% or more. The effect is printed as a negative number. Some of the results follow.

The compounds below were run against human ether-à-go-go-related gene (hERG) potassium channel (human, UniProt Q12809) (assay: primary screen, population patch clamp on CHO cells stably expressing hERG).
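Note: peak tail current of the secondary pulse compared with the same well before compound.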

Sequence of human ether-à-go-go-related gene (hERG) potassium channel (Q12809 whole entry, looked up): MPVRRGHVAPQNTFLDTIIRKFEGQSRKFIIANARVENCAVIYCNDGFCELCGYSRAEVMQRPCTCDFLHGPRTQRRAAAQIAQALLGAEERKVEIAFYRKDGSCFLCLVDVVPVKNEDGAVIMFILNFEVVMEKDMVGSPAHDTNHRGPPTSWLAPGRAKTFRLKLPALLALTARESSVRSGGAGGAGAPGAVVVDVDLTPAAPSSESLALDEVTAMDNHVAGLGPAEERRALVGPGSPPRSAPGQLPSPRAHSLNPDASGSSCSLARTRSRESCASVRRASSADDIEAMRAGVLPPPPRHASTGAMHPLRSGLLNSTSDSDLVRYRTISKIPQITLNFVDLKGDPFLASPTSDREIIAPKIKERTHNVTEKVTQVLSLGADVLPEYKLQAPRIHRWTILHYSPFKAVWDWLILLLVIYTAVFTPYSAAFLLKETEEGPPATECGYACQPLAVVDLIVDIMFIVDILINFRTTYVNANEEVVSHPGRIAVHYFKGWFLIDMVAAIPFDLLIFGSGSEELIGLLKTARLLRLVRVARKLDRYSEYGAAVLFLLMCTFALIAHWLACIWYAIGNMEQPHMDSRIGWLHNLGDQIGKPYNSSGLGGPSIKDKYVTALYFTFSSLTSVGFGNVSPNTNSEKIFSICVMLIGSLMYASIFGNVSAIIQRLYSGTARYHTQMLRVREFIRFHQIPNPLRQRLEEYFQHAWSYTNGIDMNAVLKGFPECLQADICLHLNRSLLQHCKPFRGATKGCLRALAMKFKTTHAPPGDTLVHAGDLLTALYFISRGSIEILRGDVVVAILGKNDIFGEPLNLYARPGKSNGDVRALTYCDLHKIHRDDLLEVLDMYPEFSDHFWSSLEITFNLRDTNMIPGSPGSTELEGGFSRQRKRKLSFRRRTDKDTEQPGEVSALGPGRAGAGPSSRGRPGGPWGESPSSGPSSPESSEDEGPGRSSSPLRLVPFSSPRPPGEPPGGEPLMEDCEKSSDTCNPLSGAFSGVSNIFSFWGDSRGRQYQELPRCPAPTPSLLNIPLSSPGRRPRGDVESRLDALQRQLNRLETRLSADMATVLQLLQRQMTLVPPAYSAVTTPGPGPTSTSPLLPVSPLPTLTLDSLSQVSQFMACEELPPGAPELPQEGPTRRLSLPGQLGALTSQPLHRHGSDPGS

SMILES	hERG current change (%, negative = inhibition) at 10uM
O=C(O)c1sccc1S(=O)(=O)N1CCN(c2ccc(C(F)(F)F)cn2)CC1	9.39%
CN1CCN(C(=O)/C=C/c2ccc3c(c2)OCO3)CC1	0.246%
Cc1nn(Cc2cccc(F)c2)c(C)c1NC(=O)c1c(Cl)cnn1C	6.8%
Cn1c(SCC(=O)c2ccc(F)cc2)nnc1-c1cccnc1	8.87%
O=C(N/N=C/c1ccccc1F)c1ccc(COc2ccccc2Cl)o1	-10.9%
O=C(OCc1c(F)cccc1Cl)c1cc([N+](=O)[O-])ccc1N1CCOCC1	3.43%
Cc1cc(N(C)C)c(C#N)c(NCc2ccccc2)n1	-1.98%
COC(=O)CCCn1nc(NC(=O)COc2ccc(F)cc2)cc1C	-5.47%
O=C(NC1CCCc2ccccc21)c1cn2ccccc2n1 (stereo not shown)	-25.5%
CCNC(=O)C(=O)NCC1OCCCN1S(=O)(=O)c1cccs1 (stereo not shown)	1.94%
COC(=O)Cn1ccc2cc(S(=O)(=O)N3CCCCCC3)ccc21	8.08%
COc1ccc(S(=O)(=O)/C(C#N)=C/Nc2ccccc2F)cc1	-24.8%
COc1cc(OC)c(-n2cc(-c3ccc(Cl)cc3)[nH]c2=O)cc1Cl	1.01%
CCCCCC(=O)N1CCN(S(=O)(=O)c2ccc3c(c2)OCCCO3)CC1	-18.7%
Cc1nnc(SCCn2c(N3CCC(C)CC3)nc3c2c(=O)n(C)c(=O)n3C)s1	-12.1%
CCC1CCCCN1C(=O)CSC1=NN2CCCC(=O)N=C2S1 (stereo not shown)	18.2%
CCOc1ccc2nc(Cl)c(C3CC(c4ccco4)=NN3S(C)(=O)=O)cc2c1 (stereo not shown)	-41.1%
CC(=O)c1cccc(NC(=O)C2CCN(C(=O)c3cccs3)CC2)c1	-23.5%
Cc1ccc(S(=O)(=O)NCCNC(=O)CN2CCOCC2)cc1	11.7%
O=C1c2ccccc2-c2onc3ccc(NCc4ccco4)c1c23	13.5%
O=c1oc2ccccc2c2c1SC(C(F)(F)F)C2 (stereo not shown)	-1.76%
O=[N+]([O-])c1c(Nc2ccc(Br)cc2)ccc2nonc12	10.2%
O=C(NCc1ccccc1)c1cnsn1	4.56%

SMILES	hERG current change (%, negative = inhibition) at 10uM
Cc1cccc2sc(N(CCCN(C)C)C(=O)c3ccc4ncsc4c3)nc12	-45%
CC(=O)Nc1cccc(/C(C)=N/NC(=O)c2ccc(O)cc2)c1	-9.16%
Cc1cc(Cl)ccc1NC(=O)CN1CCC(C(O)(c2ccccc2)c2ccccc2)CC1	5.73%
COc1ccc([N+](=O)[O-])cc1NC1C2CC3CC(C2)CC1C3 (stereo not shown)	18.4%
O=C(NCCc1ccccc1)C1CCN(C(=O)NCc2ccccc2)CC1	17.1%
Cc1ccc(NCc2ccc(O)c3ncccc23)cc1C	19.9%
Cc1ccc(C(C(=O)NC(C)(C)C)N(C(=O)CCC(=O)Nc2ccccn2)c2ccccc2F)cc1 (stereo not shown)	-48.4%
Cc1c(OCC(=O)NCc2ccccn2)ccc2c(-c3ccccc3)cc(=O)oc12	-7.1%
N#Cc1ccc(N2CCOCC2)c([N+](=O)[O-])c1	-21.7%
Cc1cccc2c(C(=O)n3cccn3)cc(-c3ccccc3Cl)nc12	8.89%
O=C(O)c1nn(-c2ccccc2-c2n[nH]c(=O)[nH]c2=O)c(=O)[nH]c1=O	7.77%
Cc1cccc(NC(=S)N/C(=N/S(=O)(=O)c2ccccc2)c2ccccc2)c1	13%
COc1ccccc1/C=N/Nc1nccnc1Cl	-11.5%
COc1ccc(NC(=O)CS(=O)(=O)c2ccccc2Cl)cc1	21.2%
CCOc1ccc(Cl)cc1CSc1n[nH]c(C)n1	13.7%
N#Cc1cc2cc3c(cc2nc1SCC(=O)OC1CCCCC1)OCO3	13.5%
CC(=O)C1=C(C)OC(N)=C(C#N)C1c1ccncc1 (stereo not shown)	4.17%
N#Cc1c(Cl)nc(-c2ccncc2)nc1-c1ccccc1	22.7%
CC(=O)c1ccc(NC(=S)NNC(=O)c2ccncc2)cc1	25.4%
Cc1sc2nc(CN3CCOCC3)nc(NS(=O)(=O)c3ccc4c(c3)OCCO4)c2c1C	6.33%
COc1cc(C(=O)O)cc(NC(=O)c2ccco2)c1OC	3.98%
O=C(CN1CCSc2ccccc21)NCCCc1ccccc1	-10.6%
O=C(Nc1ccc([N+](=O)[O-])cc1)C1CC1(c1ccccc1)c1ccccc1 (stereo not shown)	0.405%

SMILES	hERG current change (%, negative = inhibition) at 10uM
COC(=O)c1cccc(NC(=O)COc2cccc([N+](=O)[O-])c2)c1	23.5%
CSc1nnc(-c2ccc(NC(N)=S)cc2)o1	-3.06%
O=C(COC(=O)C1CC1)Nc1ccc2c(c1)OCO2	3.04%
O=C(C#Cc1ccccc1)Nc1ccc(F)cc1	10.1%
N#CCCSc1ccccc1NC(=O)c1cc(=O)c2ccccc2o1	-10.3%
Cc1ccc(N(C)S(=O)(=O)c2cccc(C(=O)Nc3ccc(N4CCOCC4)cc3)c2)cc1	-14%
COc1ccc(N2C(=NC(=O)C3CCCCC3)SC3CS(=O)(=O)CC32)cc1 (stereo not shown)	20%
CCCn1c(NC(=O)C2CCN(C(=O)c3ccc(F)cc3)CC2)nc2ccccc21	-47.6%
O/N=C1/CCc2nonc2/C1=N/O	-10.2%
COc1ccccc1NC(=O)CSc1nc2c(oc3ccccc32)c(=O)n1C	-3.07%
COc1cccc(-c2cn(C[C@H]3CC[C@@H]([C@@H]4CC[C@H](Cn5cc(-c6cccc(OC)c6)nn5)O4)O3)nn2)c1	-72.7%
COc1ccc(-c2cc(C)no2)cc1S(=O)(=O)N1CCCCC1	2.3%
C(=C\c1ccccc1)/C=N/N1CCN(Cc2ccccc2)CC1	1.45%
CC(=O)Nc1ccc(OC(=O)c2cc3ccccc3oc2=O)cc1	-19.6%
O/N=C/c1cc(Br)cs1	1.44%
NC(=O)C1(N2CCCCC2)CCN(c2ccc3nnc(-c4ccccc4)n3n2)CC1	-28.9%
COc1ccc(CCC(=O)N2CCc3ccccc32)cc1	0.873%
COc1cc(OC)c(C(=O)O/N=C(\N)c2ccccc2)cc1OC	-5.88%
COC(=O)c1cnn(C(=O)c2ccccc2Br)c1N	6.12%
Cn1c(=O)c(=O)n(C)c2cc([N+](=O)[O-])c([N+](=O)[O-])cc21	26.1%
Clc1ccc(CN(CC2CCCO2)C(c2cccs2)c2nnnn2C2CCCC2)cc1 (stereo not shown)	3.97%
C(=N\N1CCN(C2c3ccccc3-c3ccccc32)CC1)/c1ccncc1	3.16%
CCCOc1ccc(/C=N/Nc2cc(N3CCOCC3)ncn2)c(O)c1	13.4%

SMILES	hERG current change (%, negative = inhibition) at 10uM
COc1ccc(C(c2nnnn2CCc2ccccc2)N2CCN(C3CCCC3)CC2)cc1OC.Cl (stereo not shown)	-64.3%
CCN(Cc1ccccc1)C(=O)COC(=O)c1cc(Cl)nc(Cl)c1	-0.0442%
CC(C)N(CC(N)=O)C(=O)c1sc2cc(F)ccc2c1Cl	11.8%
C(=N\N1CCN(c2ccccc2)CC1)/c1ccccc1	-8.57%
COC(=O)C(C)N=Cc1ccccc1 (stereo not shown)	12.9%
O=C(NCCc1ccccc1)C(c1ccccc1F)N(C(=O)c1csnn1)C1CC1 (stereo not shown)	-1.1%
CCCc1[nH]nc2c1C(c1ccc(OC(=O)N3CCOCC3)c(OC)c1)C(C#N)=C(N)O2 (stereo not shown)	6.18%
C/C=C/C(=O)OCC(=O)Nc1ccc(C)c(S(=O)(=O)N(C)C)c1	2.59%
CCNc1nc(OC)nc(SCC(N)=O)n1	-1.41%
O=C1CNC(=O)N1Cc1ccc(Br)cc1	0.772%
Cc1cccc(N(CC(=O)N2CCOCC2)S(C)(=O)=O)c1	6.69%
O=C(CC1Nc2cccc3cccc(c23)NC1=O)Nc1ccccc1 (stereo not shown)	-4.74%
COC(=O)C(Cc1ccc(O)cc1)NC(=O)c1ccccc1 (stereo not shown)	13.3%
Cc1nc(NC(=O)c2cncc(Br)c2)ccc1Br	9.65%
O=[N+]([O-])c1cccc(/C=N/Nc2ncc(Br)cn2)c1	19.6%
Cc1nc(C)c(-c2ccc(SCc3ccccc3F)nn2)s1	4.94%
COc1cc(/C=C2\SC(=S)N(Nc3ccccc3)C2=O)cc(OC)c1OC	-0.509%
CCOP1(=S)Oc2cc3c(cc2C(C(=O)OC)(C(F)(F)F)O1)OCO3 (stereo not shown)	6.11%
O=C(COC(=O)c1ccc(Br)o1)Nc1nc2ccccc2s1	-13.8%
O=C(C(Sc1ccccc1)c1ccccc1)N1CCOCC1 (stereo not shown)	9.45%
Cc1ccc(-c2n[nH]c(=O)c3ccccc23)cc1S(=O)(=O)Nc1ccc(F)cc1	1.93%
Nc1c(-c2ccc(F)cc2)cnn1C1CCS(=O)(=O)C1 (stereo not shown)	5.8%
